PubChem BioAssay AID624296 (National Center for Advancing Translational Sciences (NCATS), 2012)
About 9,900 (2.8%) of roughly 350,000 compounds were called active. This list was built around the results that the source calls inconclusive (neither active nor inactive); the mix of calls is not that of the screen. The call rests on the fitted dose curve; in most records, active means well fitted activation curve with a large enough effect; inconclusive means small, poorly fitted or top-dose-only effect; inactive means no such curve, though single readings can be large or run the other way. No potency is given beside an inconclusive call; the fits are too rough.
Potency means the concentration at half of the fitted maximal effect; tags describe the fitted curve by direction and shape.

Experiment: A quantitative high throughput screen for small molecules that induce DNA re-replication in MCF 10a normal breast cells. Further: nearly all actives have a fitted effect of over 50% in size. On activity, positive = re-replication: % of control where 0% means no effect.
Details: MCF 10A DNA re-replication, Hoechst nuclear intensity, 48 h; activity, positive = re-replication: at 46.1 µM (top of the series)
For `Cc1ccc(S/C=C\C(=O)c2ccccc2)cc1`, the Potency was active: 4.11 µM. With `Cc1cc(C)cc(SCc2noc(C(=O)NCC3CC3)c2C(=O)NCC2CC2)c1` the Potency was inconclusive [activator, single point]. With `COCCNCC#CCOc1ccc(OC)cc1` the Potency was inconclusive [activator, single point]. For `CN(Cc1cccc2ccccc12)C(=O)c1cc(COc2c(F)cccc2F)on1`, the “activity, positive = re-replication” value was inactive: -14.1%. In the case of `O=C(O)c1cc(-c2ccc(-c3ccc(F)cc3)o2)nc2ccccc12`, the Potency is reported as inconclusive [activator, single point]. In the case of `COc1cccc(NC(=O)CSc2c3c(nc4ccccc24)CCCC3)c1`, the Potency is reported as inconclusive [activator, single point]. For `Cc1ccc2c(c1)CCCN2C(=O)c1cc(C)c(C)s1`, the Potency was inconclusive [activator, single point]. In the case of `Cc1ccc(C(=O)NC(C)c2ccccc2)cc1S(=O)(=O)N1CCOCC1` (stereo not drawn), the Potency is reported as inconclusive [activator, single point]. In the case of `Cc1nc(N2CCN(c3ccccn3)CC2)c2c(C)c(C(=O)Nc3ccc(F)cc3F)sc2n1`, the Potency is reported as inconclusive [activator, single point]. In the case of `CCN1CCN(c2ccc(NC(=O)c3ccc(Cl)c(S(=O)(=O)N4CCCC4)c3)cc2)CC1`, the Potency is reported as inconclusive [activator, full curve, poor fit]. In the case of `COc1ccc(CN2CSC(=S)N(Cc3ccc(OC)cc3)C2)cc1`, the Potency is reported as inconclusive [activator, single point]. For `CCOC(=O)c1cccc(NC(=O)CN(c2ccc(C)cc2)S(=O)(=O)c2c(C)noc2C)c1`, the Potency was inconclusive [activator, partial curve, poor fit]. In the case of `Cc1c(C=O)c2ccccc2n1CC(=O)NC(C)c1ccccc1` (stereo not drawn), the Potency is reported as inconclusive [activator, single point]. With `Cc1ccsc1CN(C)CC(=O)Nc1ccc([N+](=O)[O-])cc1Cl` the Potency was inconclusive [activator, single point]. For `Clc1ccc(CNCC2CCCO2)c(Cl)c1` (stereo not drawn), the “activity, positive = re-replication” value was inactive: -0.26%. For `CCOC(=O)C1=C(C)N(C)C(C)=C(C(=O)OCC)C1c1ccc(C(=O)OC)cc1`, the Potency was inconclusive [activator, single point]. In the case of `CC(C)[C@H](NC(=O)OCc1ccccc1)C(=O)OCC(=O)N1CCCCC1`, the “activity, positive = re-replication” value is reported as inactive: -2.24%. In the case of `C=CCc1cccc(Cl)c1OCCCNC1CCCC1`, the “activity, positive = re-replication” value is reported as inactive: 1.78%. With `COc1cc(-c2nc(-c3ccc(NC(=O)c4ccc5c(c4)OCO5)cc3)no2)cc(OC)c1OC` the Potency was active: 9.2 µM. For `COC(=O)c1sc2ccccc2c1NC(=O)c1cccs1`, the Potency was inconclusive [activator, full curve, poor fit]. With `FC(F)Oc1ccc(-n2cc(-c3ccccc3)[n+]3c2CCCCC3)cc1` the “activity, positive = re-replication” value was inactive: -2.17%. In the case of `Cc1ccnc(SCC(=O)Nc2sc3c(c2C#N)CCC(C(C)(C)C)C3)n1` (stereo not drawn), the Potency is reported as inconclusive [activator, partial curve, poor fit]. For `COc1ccccc1-c1nn(Cc2ccccc2)cc1/C=C/C(=O)O`, the “activity, positive = re-replication” value was inactive: -3.06%. In the case of `CSc1nc(SCCO)c2sc3nc(-c4ccco4)c4c(c3c2n1)CC(C)(C)OC4`, the Potency is reported as active: 13 µM. In the case of `Cc1ccc(C)c(OCC(=O)Nc2ccc(C(=O)O)cc2NC(=O)COc2cc(C)ccc2C)c1`, the Potency is reported as inconclusive [activator, partial curve, poor fit]. With `CCOc1ccccc1/C=N/Nc1nc2c(N)ncnc2n1[C@H]1O[C@@H](CO)[C@H](O)[C@@H]1O` the “activity, positive = re-replication” value was inactive: 6.44%. With `COc1ccc(NC(=O)c2oc3ccccc3c2NC(=O)c2ccc(OC)c(OC)c2)c(OC)c1` the Potency was inconclusive [activator, partial curve, poor fit]. For `O=C(CSCc1ccccc1Br)NNC(=S)NCc1ccco1`, the Potency was inconclusive [activator, single point]. In the case of `CCOC(=O)c1c(CN2CCOCC2)n(-c2ccccc2)c2cc(Br)c(OC)cc12`, the Potency is reported as active: 23.1 µM. In the case of `Cc1ccc(NC(=O)c2ccc3nsnc3c2)c(Cl)c1`, the Potency is reported as inconclusive [activator, single point]. For `CC(=O)c1ccc(NC(=O)CSc2nnc3ccc(-c4ccccn4)nn23)cc1`, the “activity, positive = re-replication” value was inactive: 16.3%. In the case of `O=C(CNC(=O)c1ccc(Cl)cc1)NNc1c(F)c(F)cc(F)c1F`, the “activity, positive = re-replication” value is reported as inactive: 5.21%. In the case of `CC(C)c1ccccc1NC(=O)COC(=O)c1cc([N+](=O)[O-])ccc1N1CCOCC1`, the Potency is reported as inconclusive [activator, partial curve, poor fit]. For `Cc1[nH]c2ccccc2c1NC(=O)CN1CCN(c2cccc(C(F)(F)F)c2)CC1`, the Potency was inconclusive [activator, single point]. In the case of `NC(=S)N/N=C/c1c(O)c(Br)cc2oc3c(c12)CCCC3`, the Potency is reported as inconclusive [activator, single point]. For `COc1ccc(C)cc1N1C(=N)/C(=C2/Nc3ccccc3S2)C(c2ccccc2)C1=O` (stereo not drawn), the Potency was active: 23.1 µM. In the case of `O=C(/C=C/c1ccc(S(=O)(=O)N2CCOCC2)cc1)Nc1cc(F)ccc1F`, the Potency is reported as inconclusive [activator, single point]. For `COC(=O)c1cn(CC(=O)N2C(C)CCCC2C)c2ccccc12` (stereo not drawn), the Potency was inconclusive [activator, partial curve, poor fit]. With `N#C/C(=C\c1c(Cl)cccc1Cl)c1nc2ccccc2[nH]1` the Potency was inconclusive [activator, single point]. With `Nc1cc(Nc2ccccc2)c2nonc2c1[N+](=O)[O-]` the Potency was inconclusive [activator, single point]. With `COc1ccc(C(=O)n2nc(-c3ccc(C)cc3)nc2N)cc1OC` the Potency was inconclusive [activator, partial curve, poor fit]. For `COc1ccc(S(=O)(=O)N(C)CC(=O)NCCCN2CCOCC2)cc1Cl`, the Potency was inconclusive [activator, partial curve, poor fit]. In the case of `CC(=O)Nc1ccc(S(=O)(=O)N2CCN(c3cc(C(F)(F)F)ccn3)CC2)cc1`, the Potency is reported as inconclusive [activator, partial curve, poor fit]. With `O=C(Nc1ccc2c(c1)OCCO2)c1ccc(CN2CCOCC2)cc1` the “activity, positive = re-replication” value was inactive: -12.5%. In the case of `CCOC(=O)c1cnc(SCc2nc(N)nc(Nc3ccccc3)n2)nc1N`, the Potency is reported as inconclusive [activator, single point]. For `CCOC(=O)c1sc(NC(=O)CSc2ccccn2)c(C#N)c1C`, the Potency was active: 20.6 µM. In the case of `Cn1c(=O)[nH]c(=O)c2c1nc(Br)n2C/C=N/NC(=O)c1ccccc1`, the “activity, positive = re-replication” value is reported as inactive: -23.1%. For `CCOC(=O)c1cc2c(=O)n3ccccc3nc2n(CC2CCCO2)c1=NC(=O)/C=C/c1ccccc1` (stereo not drawn), the Potency was inconclusive [activator, single point]. In the case of `COC(=O)c1ccc(-c2ccc([C@H]3[C@H]4C=CC[C@@H](C)[C@@H]4C(=O)N3Cc3ccccc3)c(F)c2)cc1`, the Potency is reported as inconclusive [activator, single point]. For `CC(C)CSC1=NSC2=NC(=O)/C(=C\c3coc4ccccc4c3=O)C(=N)N12`, the Potency was active: 20.6 µM. For `O=C(CCCOc1ccc(Cl)cc1Cl)N/N=C/c1ccco1`, the “activity, positive = re-replication” value was inactive: 4.78%. With `N#Cc1ccccc1Cn1cc(/C=N/Nc2ccc([N+](=O)[O-])cn2)c2ccccc21` the “activity, positive = re-replication” value was inactive: 11.9%. For `COc1cc2ccccc2cc1C(=O)N(CCN(C)C)c1nc2c(OC)ccc(OC)c2s1`, the Potency was inconclusive [activator, single point]. With `COC(=O)c1c(NC(=O)c2ccco2)sc(C(=O)N2CCCC2)c1C` the Potency was inconclusive [activator, partial curve, poor fit]. With `C(=N\N(c1ccccc1)c1ccccc1)/c1ccccn1` the Potency was inconclusive [activator, full curve, poor fit]. With `O=C(NCc1ccccn1)C1CCN(S(=O)(=O)N2CCC3(CC2)OCCO3)CC1` the activity, positive = re-replication was inconclusive: 106% [activator]. For `Cc1cccc(NC(=S)N2CCCCCC2)c1`, the Potency was inconclusive [activator, single point]. With `COc1cc(CN2CCC(Cc3ccccc3)CC2)cc(OC)c1OC` the Potency was inconclusive [activator, full curve]. With `c1ccc(-c2cc3c(NCC4COc5ccccc5O4)ncnc3s2)cc1` (stereo not drawn) the Potency was inconclusive [activator, single point]. For `O=C(CN(c1ccc(Cl)cc1)S(=O)(=O)c1ccc(Cl)c([N+](=O)[O-])c1)NCCc1ccccc1`, the Potency was active: 3.66 µM. With `CO/N=C(\Cn1ncc(N2CCCC2)c(Cl)c1=O)c1ccc(Cl)cc1` the Potency was inconclusive [activator, partial curve, poor fit]. With `COc1ccc(CC(=O)Nc2sc3c(c2C(N)=O)CCCC3)cc1` the Potency was inconclusive [activator, partial curve, poor fit]. In the case of `C=C1CCN(Cc2ccccc2)S(=O)(=O)c2ccccc21`, the Potency is reported as inconclusive [activator, partial curve, poor fit]. For `Cc1ccc(S(=O)(=O)NCc2cccnc2)cc1C`, the “activity, positive = re-replication” value was inactive: -0.692%. For `CN(C)S(=O)(=O)c1ccc(C(=O)NCc2nnc(SCC(=O)NCc3ccco3)o2)cc1`, the “activity, positive = re-replication” value was inactive: -1.56%. In the case of `COc1ccc(-c2oc(=O)c3cc(OC)c(OC)cc3c2C#CC2(O)CCCCC2)cc1`, the Potency is reported as active: 2.06 µM. For `CC1(C(=O)OCC(=O)NC(=O)NCc2ccccc2)CC1(Cl)Cl` (stereo not drawn), the “activity, positive = re-replication” value was inactive: 0.807%. With `CC1(C)CC(=O)C2=C(C1)c1c(ccc3ncccc13)NC2c1cccs1` (stereo not drawn) the Potency was active: 9.2 µM.
